The values that follow come from the supplement of paper PMC11417369.

± gives the standard deviation of the averaged measurements. The list shows a part of the results.

For this assay, the system named is PfAP2-LT AP2 domain (GST-tagged). As to the kind of experiment: gcPBM binding intensity (ln(normalized median fluorescence intensity)); higher = stronger DNA binding. A digest of the protocol: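 The binding buffer was 1× PBS containing 1% milk, 0.2 mg/ml BSA, 0.5% salmon testes DNA and 0.03% Triton X-100. In it, GST-tagged P. falciparum DNA-binding domains expressed in E. coli were applied for 1 h to an Agilent 4 × 180k array of primer-extended double-stranded 36-bp intergenic genomic probes plus negative controls. Binding intensity, read with Alexa488 anti-GST antibody and a 488 nm scan, is the highest Masliner-normalised natural-log median intensity across replicate spots of either probe orientation.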
Regarding “CTTATTTTATTCGAATGTACATAATTGTTAGACATT [XGTACX_site8583]”, the “gcPBM binding intensity (ln)” value is 8.7 ± 0.38.

In the case of “AATAATAACAAATGAACACACATATAGATGAGCAAA [CACACA_site7076]”, the “gcPBM binding intensity (ln)” value came out at 9.26 ± 0.45.

“TATCTCATGCGCACAAAAATATATGCAAAGAGTATA [TGCATGCA_negctrl_site201]”: the “gcPBM binding intensity (ln)” value is 9.07 ± 0.21.

For “CTTAAGTAAAATTAAAGTACATGGACAAAAAATATA [XGTACX_site7900]”, the “gcPBM binding intensity (ln)” value is 8.73 ± 0.42.

In the case of “ATATGTGTTAAAAATGCACACAAAAAAATATACATA [CACACA_site7988]”, the “gcPBM binding intensity (ln)” value turned out to be 9.26 ± 0.38.

Turning to “CAATTTTACTCATAAACACACATATATATGTTATTA [CACACA_site3152]”, the “gcPBM binding intensity (ln)” value was 8.86 ± 0.47.

As to “ATATAAACATATAATAGTACACTTCGATAATTTTAT [XGTACX_site3321]”, the “gcPBM binding intensity (ln)” value was determined as 8.69 ± 0.51.

For “GTACCATCAAAATAAATATATATATATATATATTTT [GTGCAC_negctrl_site646]”, the “gcPBM binding intensity (ln)” value turned out to be 8.89 ± 0.31.

With “ATTTAACATATAAAATGTACATATATATATATATTT [XGTACX_site2525]”, the “gcPBM binding intensity (ln)” value amounted to 8.86 ± 0.32.

Consider TCATAAATATAAAGTGTGCACTTGAATAATATGTAT, for which the “gcPBM binding intensity (ln)” value came out at 8.91 ± 0.3.

As to “AAAATAAAAAAAATAAATAAAAAAAATAATAATAAA [CACACA_negctrl_site563]”, the “gcPBM binding intensity (ln)” value was 8.51 ± 0.65.

Regarding TAAATAAATCTGTGCTTGCACTTTTTTTGTTATTTT, the “gcPBM binding intensity (ln)” value is 8.59 ± 0.51.

For “ACATGTAATATAATGTGTACATATACAAAGGTATAT [XGTACX_site4145]”, the “gcPBM binding intensity (ln)” value came out at 9.34 ± 0.59.

As to “ATAAAGTATATTATATGTACATATATATATTATATA [XGTACX_site1345]”, the “gcPBM binding intensity (ln)” value was 8.68 ± 0.4.

For the sequence “AGATGAGAAATATATACACACAATAATACCTATTTA [CACACA_site876]”, the “gcPBM binding intensity (ln)” value was found to be 9.1 ± 0.52.

For TTTCTTTTTTCTTCAGTGCATTAAAATTAACAAAAG, the “gcPBM binding intensity (ln)” value is 8.21 ± 0.38.

“TTTGTGTTGTATTTTTGTACATAAAATAAACTTAAA [XGTACX_site4637]”: the “gcPBM binding intensity (ln)” value came to 8.33 ± 0.38.

As to “GAGCCCAAAAAATTAGGTACGTATAAAGAGGTATTT [XGTACX_site5348]”, the “gcPBM binding intensity (ln)” value worked out at 8.8 ± 0.54.

“AGGAAAATTTTATTTGCACACATTATTACGTCTAAA [CACACA_site2337]”: the “gcPBM binding intensity (ln)” value came out at 9.01 ± 0.4.

“CATATATATATTGGAAGTACATATTTAATATTCATT [XGTACX_site3545]”: the “gcPBM binding intensity (ln)” value was found to be 8.68 ± 0.44.

On to “TCTTTTTTCATATTTTCACACATGTCTTTATATTTA [CACACA_site6025]”, for which the “gcPBM binding intensity (ln)” value worked out at 9.12 ± 0.53.

Turning to “ATTCCTTTATTATCACGTACTTATAAAATATAGTAT [XGTACX_site7498]”, the “gcPBM binding intensity (ln)” value was determined as 8.93 ± 0.44.

Take “TTAAATAAAATAAAAACATGCACACTTTATTTTTTT [TGCATGCA_site719]”: the “gcPBM binding intensity (ln)” value came to 8.68 ± 0.5.

Turning to “TTATATATATATTGTTCACACATAATATAAATATTT [CACACA_site5835]”, the “gcPBM binding intensity (ln)” value came out at 8.61 ± 0.52.

Consider “ATAAACAGATAAAAGGGTACACACATATATACATGT [XGTACX_site452]”, for which the “gcPBM binding intensity (ln)” value came to 9.35 ± 0.56.

On to “TTTTTCATTTAGCTTTTACACACTATATATTATTGA [CACACA_site7888]”, for which the “gcPBM binding intensity (ln)” value amounted to 8.93 ± 0.44.

Regarding “TTTTAATAAATCATTTTCCTAATATTTATATTTGCT [TGCATGCA_negctrl_site232]”, the “gcPBM binding intensity (ln)” value worked out at 8.51 ± 0.54.

Turning to “TATATTTTTATGTGTGTGCACAAAATAACAAAATAT [GTGCAC_site9596]”, the “gcPBM binding intensity (ln)” value was 9.28 ± 0.33.

On to ATTATTTTTTTTGAAGTGCAATATTATTTTTAATCA, for which the “gcPBM binding intensity (ln)” value is 8.46 ± 0.45.

Regarding “GTTAAGTGGATATATACACACATATGCAATACATGA [CACACA_site7427]”, the “gcPBM binding intensity (ln)” value was determined as 9.18 ± 0.35.

Consider “CAATTCAATATATATACACACACACTATTAATAATT [CACACA_site9256]”, for which the “gcPBM binding intensity (ln)” value is 9.54 ± 0.25.

“ATGTGGATTTTATAATGTACATATGATATTATTTTG [XGTACX_site7930]”: the “gcPBM binding intensity (ln)” value was 8.9 ± 0.27.

In the case of “TATACTACCCAGAGCTGTACAAAATAATAATAAGTT [XGTACX_site1045]”, the “gcPBM binding intensity (ln)” value was 8.94 ± 0.35.

Regarding ATGGTTATATTTGAAGTGCAAAAAAAAATATATGTA, the “gcPBM binding intensity (ln)” value worked out at 8.73 ± 0.47.

Regarding “CAAACCCACCAACACACACACACAAAAATGATTAAA [CACACA_site2432]”, the “gcPBM binding intensity (ln)” value was 9.88 ± 0.3.

With “TACTTTTTTATTTGGTGTACAAATAAAATCATAATG [XGTACX_site1802]”, the “gcPBM binding intensity (ln)” value turned out to be 8.62 ± 0.42.

Take “ATATATTTTGATTGCACACAGAATTTAAATCATGAT [CACACA_site2343]”: the “gcPBM binding intensity (ln)” value amounted to 9.03 ± 0.26.

In the case of “GAAGATATATAATAATTCATAGTTTTTTAATTTAAA [TGCATGCA_negctrl_site295]”, the “gcPBM binding intensity (ln)” value stood at 8.23 ± 0.59.

In the case of “CTCTTTTCTTATAATACACACAGTAATATTTATATA [CACACA_site6824]”, the “gcPBM binding intensity (ln)” value came out at 8.82 ± 0.42.

For “AATAAAAAAAATTTCTGTACATATATTTATTATATA [XGTACX_site1883]”, the “gcPBM binding intensity (ln)” value came to 8.36 ± 0.42.

“CCTATCCAGACATATACACACATATCTATTTATATA [CACACA_site5001]”: the “gcPBM binding intensity (ln)” value is 9.04 ± 0.4.

Regarding “TATAAAAAATAATACACACACATGGCGACAAAATAA [CACACA_site2420]”, the “gcPBM binding intensity (ln)” value worked out at 9.54 ± 0.29.

Consider “TTTACTTTCCCAAGTTGTACTGCTTCTAAGCTTTTT [XGTACX_site2708]”, for which the “gcPBM binding intensity (ln)” value was 8.77 ± 0.48.

Turning to “AATGATAATATTTCCTTCTTTTTTACTTCTTTCTTT [CACACA_negctrl_site776]”, the “gcPBM binding intensity (ln)” value was 8.65 ± 0.57.

Consider “AAAATGGTTTATAAATGTACATATATTATATATAAC [XGTACX_site7959]”, for which the “gcPBM binding intensity (ln)” value worked out at 8.79 ± 0.42.
